We go through 6 compounds from PubChem BioAssay (NCI).

What all share (assay): DTP human tumour cell line panel, 48 h
Experiment [1] relates to HOP-92 NSCLC.
Experiment [2] concerns HL-60(TB) leukemia.
Experiment [3] deals with UO-31 renal.
The test system of experiment [4] is UACC-62 melanoma.
The test system of experiment [5] is OVCAR-5 ovarian.
Experiment [6] has as its system A498 renal.
For experiment [7], the system named is HOP-62 NSCLC.
In experiment [8] the test system is SNB-75 CNS.
Experiment [9] has as its system NCI-H226 lung.
Experiment [10] has as its system NCI-H460 lung.
For experiment [11], the system named is LXFL 529 NSCLC.
For experiment [12], the system named is SF-268 CNS.
Experiment [13] relates to OVCAR-4 ovarian.
Experiment [14] deals with RXF-631 renal.
Experiment [15] relates to CAKI-1 renal.
Experiment [16] relates to DLD-1 colon.
Experiment [17] relates to SN12C renal.
For experiment [18], the system named is LOX IMVI melanoma.
The test system of experiment [19] is DMS 273 small cell lung.
Experiment [20] relates to 786-0 renal.
The subject of experiment [21] is HT29 colon.
For experiment [22], the system named is SF-295 CNS.
Experiment [23] relates to SNB-19 CNS.
Experiment [24] concerns IGROV1 ovarian.
The subject of experiment [25] is MALME-3M melanoma.
The subject of experiment [26] is SK-MEL-28 melanoma.
For experiment [27], the system named is MOLT-4 leukemia.
The subject of experiment [28] is SW-620 colon.
For experiment [29], the system named is OVCAR-3 ovarian.
The test system of experiment [30] is M14 melanoma.
Experiment [31] concerns DMS 114 small cell lung.
Experiment [32] concerns A549 NSCLC.
For experiment [33], the system named is KM12 colon.
Experiment [34] concerns K-562 leukemia.
The test system of experiment [35] is UACC-257 melanoma.
Experiment [36] deals with NCI-H23 lung.
For experiment [37], the system named is CCRF-CEM leukemia.
The test system of experiment [38] is ACHN renal.
Experiment [39] deals with XF 498 CNS.
Experiment [40] relates to M19-MEL melanoma.
Experiment [41] concerns SK-MEL-2 melanoma.
In experiment [42] the test system is TK-10 renal.
Experiment [43] concerns EKVX NSCLC.
The subject of experiment [44] is HCT-116 colon.
For experiment [45], the system named is RXF 393 renal.
The subject of experiment [46] is COLO 205 colon.
In experiment [47] the test system is OVCAR-8 ovarian.
The subject of experiment [48] is HCC-2998 colon.
The subject of experiment [49] is U251 CNS.
The subject of experiment [50] is SR leukemia.
Experiment [51] relates to RPMI-8226 leukemia.
Experiment [52] concerns HCT-15 colon.
Experiment [53] concerns MCF7 breast.
The test system of experiment [54] is PC-3 prostate.

The structures appear in SMILES notation.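 Grown in 96-well plates, cells were treated for 48 hours with each compound at five concentrations. Insufficient inhibition: endpoint recorded as highest concentration tested. GI50 marks 50% less growth.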 For part of its entries the source gives two or more results. Only these are listed. An entry can have further records. For part of these data: Records of one sample usually come from different ranges of test concentrations, not given here; some values may only mark the edge of a range.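 TGI marks complete inhibition of growth.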 For part of these data: The values listed for one entry repeat one measurement in other runs, samples, wells, individuals or studies. Marks in square brackets tell the records apart. Letters count within one entry.

What is called TGI is the concentration at which net growth stops. A low value points to more potent growth arrest. As for `C=CC1=CC(C)C[C@]1(O)C(=O)OC` (some centres undefined), the TGI is < 10 nM and > 100 µM in experiment [1]; < 10 nM and > 100 µM in experiment [2]; < 10 nM and > 100 µM in experiment [3]; < 10 nM and > 100 µM in experiment [4]; < 10 nM and > 100 µM in experiment [5]; < 10 nM and > 100 µM in [6]. For the same compound, the TGI is < 10 nM and > 100 µM in experiment [7]; < 10 nM and > 100 µM in experiment [8]; < 10 nM and > 100 µM in experiment [9]; < 10 nM and > 100 µM in experiment [10]; < 10 nM and > 100 µM in experiment [11]; < 10 nM and > 100 µM in experiment [12]. The concentration for total growth inhibition (TGI) in [13] was < 10 nM and > 100 µM; in [14] it was < 10 nM and > 100 µM; in experiment [15] it was < 10 nM and > 100 µM; in [16] it was < 10 nM and > 100 µM; in experiment [17] it was < 10 nM and > 100 µM; in [18], < 10 nM and > 100 µM. For the same compound, the TGI in [19] was < 10 nM and > 100 µM; in [20], < 10 nM and > 100 µM; in experiment [21] it was < 10 nM and > 100 µM; in experiment [22], < 10 nM and > 100 µM; in experiment [23], < 10 nM and > 100 µM; in [24], < 10 nM and > 100 µM. The TGI was < 10 nM and > 100 µM in [25]; < 10 nM and > 100 µM in experiment [26]; < 10 nM and > 100 µM in experiment [27]; < 10 nM and > 100 µM in [28]; < 10 nM and > 100 µM in experiment [29]; < 10 nM and > 100 µM in experiment [30]. Further, the TGI in [31] is < 10 nM and > 100 µM; in experiment [32], < 10 nM and > 100 µM; in [33] it was < 10 nM and > 100 µM; in [34], < 10 nM and > 100 µM; in [35] it was < 10 nM and > 100 µM; in experiment [36], < 10 nM and > 100 µM. Moreover, the concentration for total growth inhibition (TGI) in experiment [37] was < 10 nM and > 100 µM; in experiment [38], < 10 nM and > 100 µM; in [39], < 10 nM and > 100 µM; in experiment [40], < 10 nM and > 100 µM; in [41] it was < 10 nM and > 100 µM; in experiment [42] it was < 10 nM and > 100 µM. Besides, the total growth inhibition concentration (TGI) in experiment [43] was < 10 nM and > 100 µM; in [44] it was < 10 nM and > 100 µM; in experiment [45] it was < 10 nM and > 100 µM; in [46], < 10 nM and > 100 µM; in experiment [47], < 10 nM and > 100 µM; in experiment [48], < 10 nM and > 100 µM. Besides, the TGI in experiment [49] was < 10 nM and > 100 µM.

As to `Cc1cc(NC(=O)NC(=O)c2ccccc2N(C)C)ccc1Oc1ncc(Br)cn1`, the total growth inhibition concentration (TGI) is 654 nM and > 100 µM in [31]; 858 nM and 19.2 µM in experiment [50]; 2.06 µM and > 100 µM in [39]; 1.47 µM and 33.1 µM in experiment [46].

The GI50 is the concentration that inhibits growth by half. High values mean lower sensitivity of the cells, low ones greater sensitivity of the cells. On to `CC[C@H](C)[C@H](NC(=O)[C@H]1CCCCN1C)C(=O)N(C)[C@H](C[C@@H](OC(C)=O)c1nc(C(=O)N[C@@H](Cc2ccccc2)C[C@H](C)C(=O)OC)cs1)C(C)C`, for which the concentration for 50% growth inhibition (GI50) in experiment [4] is 0.0777 nM and 2.5 nM; in [51] it was 0.226 nM and 2.5 nM; in experiment [22], 0.219 nM and 2.5 nM; in [28] it was 0.225 nM and 2.5 nM; in experiment [33], 0.158 nM and 2.5 nM; in experiment [50], 0.0785 nM and 2.5 nM. Further, the concentration for 50% growth inhibition (GI50) is 0.0433 nM and 2.5 nM in [53]; 0.162 nM and 2.5 nM in experiment [54]. Further, the TGI in [8] is 70.6 nM and 21.5 µM; in experiment [52], 27.5 nM and > 25 µM.

Turning to `CC[C@@]1(O)C(=O)OCc2c1cc1n(c2=O)Cc2cc3c(N)cccc3nc2-1`, the total growth inhibition concentration (TGI) in experiment [50] was 11.9 nM and > 4.84 µM; in experiment [37], 5.03 nM and 208 nM.

With `CC(C)(C)CC(C)(C)c1ccc(OCCOCC[N+](C)(C)Cc2ccccc2)cc1`, the total growth inhibition concentration (TGI) was 49.2 µM [sample A] and 4.12 µM [sample B] in [6]; 4.36 µM [sample A] and > 100 µM [sample B] in [50].

For `Cc1ccc(/C=C2\CNC/C(=C\c3ccc(C)cc3)C2=O)cc1`, the concentration for total growth inhibition (TGI) in [29] is 4.56 µM and > 100 µM; in experiment [41], 3.74 µM and > 62.4 µM.
